PMC4752221
Results are given in words; binding and its absence hold for the method and conditions named. For some of these results: In cells and extracts the contact can be indirect. Some binding calls cover weakened binding; strength is not graded here. For some of these results: Sequences can lack the tags named with a protein.

Sequences of proteins named here, by UniProt entry; tags and fusion partners are left off.
UniProt P04456: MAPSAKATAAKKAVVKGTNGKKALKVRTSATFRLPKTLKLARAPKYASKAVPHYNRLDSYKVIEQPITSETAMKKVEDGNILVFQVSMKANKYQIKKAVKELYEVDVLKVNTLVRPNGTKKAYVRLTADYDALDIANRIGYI
UniProt Q3E757: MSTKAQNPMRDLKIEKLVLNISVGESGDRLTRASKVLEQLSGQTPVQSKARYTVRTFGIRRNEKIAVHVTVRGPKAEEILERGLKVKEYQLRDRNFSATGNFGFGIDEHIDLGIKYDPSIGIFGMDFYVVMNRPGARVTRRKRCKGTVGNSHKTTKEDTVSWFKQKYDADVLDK

T1: Dbp5-GFP (S. cerevisiae) (UniProt P20449)
T1 sequence: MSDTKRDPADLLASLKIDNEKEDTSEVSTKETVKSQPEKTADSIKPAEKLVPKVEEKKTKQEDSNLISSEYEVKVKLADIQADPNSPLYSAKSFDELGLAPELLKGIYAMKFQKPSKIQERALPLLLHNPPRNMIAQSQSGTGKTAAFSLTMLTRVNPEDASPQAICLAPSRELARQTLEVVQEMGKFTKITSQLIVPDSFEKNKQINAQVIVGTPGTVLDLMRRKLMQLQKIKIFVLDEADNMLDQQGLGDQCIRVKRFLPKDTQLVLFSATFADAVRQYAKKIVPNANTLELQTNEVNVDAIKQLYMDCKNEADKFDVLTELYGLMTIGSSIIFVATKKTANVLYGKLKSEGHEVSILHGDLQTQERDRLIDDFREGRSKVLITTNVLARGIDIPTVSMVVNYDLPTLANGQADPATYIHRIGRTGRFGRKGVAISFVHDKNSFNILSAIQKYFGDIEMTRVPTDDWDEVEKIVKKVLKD

T2: GFP-Dbp5 (S. cerevisiae) (UniProt P20449)
T2 sequence: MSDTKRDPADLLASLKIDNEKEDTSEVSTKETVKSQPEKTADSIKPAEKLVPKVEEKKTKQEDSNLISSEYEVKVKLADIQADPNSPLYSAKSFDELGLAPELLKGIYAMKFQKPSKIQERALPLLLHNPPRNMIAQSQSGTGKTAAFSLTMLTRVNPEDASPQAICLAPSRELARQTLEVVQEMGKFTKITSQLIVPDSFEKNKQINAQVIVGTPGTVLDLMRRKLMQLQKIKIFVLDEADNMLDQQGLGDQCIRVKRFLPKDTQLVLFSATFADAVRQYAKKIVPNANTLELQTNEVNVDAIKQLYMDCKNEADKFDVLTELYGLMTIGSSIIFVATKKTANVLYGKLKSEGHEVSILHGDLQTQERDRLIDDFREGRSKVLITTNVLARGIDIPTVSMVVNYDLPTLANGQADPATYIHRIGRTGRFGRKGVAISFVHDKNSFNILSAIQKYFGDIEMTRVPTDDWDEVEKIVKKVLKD

T3: Arx1-GFP (S. cerevisiae) (UniProt Q03862)
T3 sequence: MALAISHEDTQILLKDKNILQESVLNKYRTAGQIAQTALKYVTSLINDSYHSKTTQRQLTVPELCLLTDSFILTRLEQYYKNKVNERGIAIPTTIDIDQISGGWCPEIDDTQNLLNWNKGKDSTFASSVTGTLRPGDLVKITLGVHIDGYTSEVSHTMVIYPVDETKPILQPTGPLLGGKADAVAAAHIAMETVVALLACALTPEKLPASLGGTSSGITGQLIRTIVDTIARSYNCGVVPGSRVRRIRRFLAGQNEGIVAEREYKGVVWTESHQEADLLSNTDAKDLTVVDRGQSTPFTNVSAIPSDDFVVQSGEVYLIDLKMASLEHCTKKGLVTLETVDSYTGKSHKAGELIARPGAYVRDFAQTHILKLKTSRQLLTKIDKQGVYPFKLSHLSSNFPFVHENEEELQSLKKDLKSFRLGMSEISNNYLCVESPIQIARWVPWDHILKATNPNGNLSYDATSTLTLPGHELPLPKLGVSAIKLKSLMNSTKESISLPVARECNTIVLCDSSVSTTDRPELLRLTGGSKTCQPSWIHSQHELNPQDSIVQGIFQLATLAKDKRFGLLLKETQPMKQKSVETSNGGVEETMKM

T4: His-Mtr2 (S. cerevisiae) (UniProt P34232)
T4 sequence: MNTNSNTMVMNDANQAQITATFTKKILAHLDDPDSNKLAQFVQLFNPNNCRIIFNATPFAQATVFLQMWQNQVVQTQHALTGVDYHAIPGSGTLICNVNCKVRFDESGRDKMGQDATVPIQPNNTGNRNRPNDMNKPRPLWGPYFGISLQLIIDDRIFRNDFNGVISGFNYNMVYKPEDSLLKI

T5: Mex67-GFP (S. cerevisiae) (UniProt Q99257)
T5 sequence: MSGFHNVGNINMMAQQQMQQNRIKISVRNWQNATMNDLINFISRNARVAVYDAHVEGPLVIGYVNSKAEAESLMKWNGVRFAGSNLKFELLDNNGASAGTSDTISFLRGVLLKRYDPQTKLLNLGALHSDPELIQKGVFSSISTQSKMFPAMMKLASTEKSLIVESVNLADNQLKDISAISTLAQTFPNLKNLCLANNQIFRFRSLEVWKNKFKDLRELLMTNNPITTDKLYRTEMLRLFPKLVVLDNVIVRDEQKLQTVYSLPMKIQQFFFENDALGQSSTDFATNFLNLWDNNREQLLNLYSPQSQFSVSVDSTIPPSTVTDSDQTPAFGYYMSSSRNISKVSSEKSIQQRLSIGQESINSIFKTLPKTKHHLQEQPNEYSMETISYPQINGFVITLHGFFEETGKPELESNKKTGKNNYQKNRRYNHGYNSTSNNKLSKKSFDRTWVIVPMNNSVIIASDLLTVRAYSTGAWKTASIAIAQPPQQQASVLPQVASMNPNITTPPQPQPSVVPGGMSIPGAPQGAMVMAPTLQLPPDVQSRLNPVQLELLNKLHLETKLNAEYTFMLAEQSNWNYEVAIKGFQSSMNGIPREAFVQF


Columns and labels:
[1] = target: Rpl25-GFP (S. cerevisiae) (UniProt P04456); assay: co-IP; Rpl25-GFP on GFP-Trap_A beads from pooled polysomal sucrose-gradient fractions of wild type yeast lysate, samples treated with 0.1 mg/ml RNase A; PBSKMT buffer (0.3% Triton-X 100), 4.5 h at 4°C; Western blot
[2] = target: Rpl11b-GFP (S. cerevisiae) (UniProt Q3E757); assay: co-IP; GFP-tagged bait on GFP-Trap_A beads from clarified yeast lysate, PBSKMT (0.5% Triton-X 100), 3 h at 4°C, samples treated with 0.2 mg/ml RNase A for 30 min at 4°C; Western blot; in some panels wild type and dbp5 mutant cells after a 1 h temperature shift
Dbp5-GFP (S. cerevisiae) = target: T1, Dbp5-GFP (S. cerevisiae); assay: co-IP; GFP-tagged bait on GFP-Trap_A beads from clarified yeast lysate, PBSKMT (0.5% Triton-X 100), 3 h at 4°C, no RNase A treatment indicated; Western blot; in some panels wild type and drg1-18 cells shifted for 1 h to 37°C
GFP-Dbp5 (S. cerevisiae) [3] = target: T2, GFP-Dbp5 (S. cerevisiae); assay: as above
Arx1-GFP (S. cerevisiae) = target: T3, Arx1-GFP (S. cerevisiae); assay: as above
GFP-Dbp5 (S. cerevisiae) [4] = target: T2, GFP-Dbp5 (S. cerevisiae); assay: co-IP; GFP-tagged bait on GFP-Trap_A beads from clarified yeast lysate, PBSKMT (0.5% Triton-X 100), 3 h at 4°C, samples treated with 0.2 mg/ml RNase A for 30 min at 4°C; Western blot; in some panels wild type and dbp5 mutant cells after a 1 h temperature shift
[5] = target: Rpl25-GFP (S. cerevisiae) (UniProt P04456); assay: co-IP; Rpl25-GFP on GFP-Trap_A beads from pooled sucrose-gradient fractions of the free ribosomal subunits of wild type yeast lysate; PBSKMT buffer (0.3% Triton-X 100), 4.5 h at 4°C; Western blot
His-Mtr2 (S. cerevisiae) = target: T4, His-Mtr2 (S. cerevisiae); assay: co-purification (Ni-NTA affinity chromatography); His-Mtr2 and Mex67 co-expressed in E. coli BL21 DE3, heterodimer purified on Protino Ni-NTA agarose
[6] = target: T5, Mex67-GFP (S. cerevisiae); assay: co-IP; GFP-tagged bait on GFP-Trap_A beads from clarified yeast lysate, PBSKMT (0.5% Triton-X 100), 3 h at 4°C, samples treated with 0.2 mg/ml RNase A for 30 min at 4°C; Western blot; in some panels wild type and dbp5 mutant cells after a 1 h temperature shift

binding [1] | binding [2] | binding (GFP-Dbp5 (S. cerevisiae) [3]) | binding (Arx1-GFP (S. cerevisiae)) | binding [6] | Binder | other results
no binding | no binding | – | – | – | Aco1 (protein, UniProt P19414 17-778) ATVSNLTRDSKVNQNLLEDHSFINYKQNVETLDIVRKRLNRPFTYAEKILYGHLDDPHGQDIQRGVSYLKLRPDRVACQDATAQMAILQFMSAGLPQVAKPVTVHCDHLIQAQVGGEKDLKRAIDLNKEVYDFLASATAKYNMGFWKPGSGIIHQIVLENYAFPGALIIGTDSHTPNAGGLGQLAIGVGGADAVDVMAGRPWELKAPKILGVKLTGKMNGWTSPKDIILKLAGITTVKGGTGKIVEYFGDGVDTFSATGMGTICNMGAEIGATTSVFPFNKSMIEYLEATGRGKIADFAKLYHKDLLSADKDAEYDEVVEIDLNTLEPYINGPFTPDLATPVSKMKEVAVANNWPLDVRVGLIGSCTNSSYEDMSRSASIVKDAAAHGLKSKTIFTVTPGSEQIRATIERDGQLETFKEFGGIVLANACGPCIGQWDRRDIKKGDKNTIVSSYNRNFTSRNDGNPQTHAFVASPELVTAFAIAGDLRFNPLTDKLKDKDGNEFMLKPPHGDGLPQRGYDAGENTYQAPPADRSTVEVKVSPTSDRLQLLKPFKPWDGKDAKDMPILIKAVGKTTTDHISMAGPWLKYRGHLENISNNYMIGAINAENKKANCVKNVYTGEYKGVPDTARDYRDQGIKWVVIGDENFGEGSSREHAALEPRFLGGFAIITKSFARIHETNLKKQGLLPLNFKNPADYDKINPDDRIDILGLAELAPGKPVTMRVHPKNGKPWDAVLTHTFNDEQIEWFKYGSALNKIKADEKK | –
binds | binds | – | – | binds | Rps3 (protein, UniProt P05750 1-240) MVALISKKRKLVADGVFYAELNEFFTRELAEEGYSGVEVRVTPTKTEVIIRATRTQDVLGENGRRINELTLLVQKRFKYAPGTIVLYAERVQDRGLSAVAQAESMKFKLLNGLAIRRAAYGVVRYVMESGAKGCEVVVSGKLRAARAKAMKFADGFLIHSGQPVNDFIDTATRHVLMRQGVLGIKVKIMRDPAKSRTGPKALPDAVTIIEPKEEEPILAPSVKDYRPAEETEAQAEPVEA | –

The remaining lines, values behind:

Binder | binding [1] | binding [2] | binding (GFP-Dbp5 (S. cerevisiae) [3]) | binding (Arx1-GFP (S. cerevisiae)) | binding [6] | other results
Nmd3-13xmyc (protein, UniProt P38861 1-518) MEFTPIDPHQHQNAATLLCCNCGTPIDGSTGLVMCYDCIKLTVDITQGIPREANISFCRNCERFLQPPGQWIRAELESRELLAICLRRLKGLTKVRLVDASFIWTEPHSRRIRIKLTVQGEAMTNTIIQQTFEVEYIVIAMQCPDCARSYTTNTWRATVQIRQKVPHKRTFLFLEQLILKHNAHVDTISISEAKDGLDFFYAQKNHAVKMIDFLNAVVPIKHKKSEELISQDTHTGASTYKFSYSVEIVPICKDDLVVLPKKLAKSMGNISQFVLCSKISNTVQFMDPTTLQTADLSPSVYWRAPFNALADVTQLVEFIVLDVDSTGISRGNRVLADITVARTSDLGVNDQVYYVRSHLGGICHAGDSVMGYFIANSNYNSDLFDGLNIDYVPDVVLVKKLYQRKSKKSRHWKLKRMAKEHKDIDASLDYNSRAQKQEMERAEKDYELFLQELEEDAELRQSVNLYKNREANVPPEEHEMDEDEDEDAPQINIDELLDELDEMTLEDGVENTPVESQQ | – | – | binds | binds | – | binding (Dbp5-GFP (S. cerevisiae)): binds
Mex67 (protein, UniProt Q99257 1-599) MSGFHNVGNINMMAQQQMQQNRIKISVRNWQNATMNDLINFISRNARVAVYDAHVEGPLVIGYVNSKAEAESLMKWNGVRFAGSNLKFELLDNNGASAGTSDTISFLRGVLLKRYDPQTKLLNLGALHSDPELIQKGVFSSISTQSKMFPAMMKLASTEKSLIVESVNLADNQLKDISAISTLAQTFPNLKNLCLANNQIFRFRSLEVWKNKFKDLRELLMTNNPITTDKLYRTEMLRLFPKLVVLDNVIVRDEQKLQTVYSLPMKIQQFFFENDALGQSSTDFATNFLNLWDNNREQLLNLYSPQSQFSVSVDSTIPPSTVTDSDQTPAFGYYMSSSRNISKVSSEKSIQQRLSIGQESINSIFKTLPKTKHHLQEQPNEYSMETISYPQINGFVITLHGFFEETGKPELESNKKTGKNNYQKNRRYNHGYNSTSNNKLSKKSFDRTWVIVPMNNSVIIASDLLTVRAYSTGAWKTASIAIAQPPQQQASVLPQVASMNPNITTPPQPQPSVVPGGMSIPGAPQGAMVMAPTLQLPPDVQSRLNPVQLELLNKLHLETKLNAEYTFMLAEQSNWNYEVAIKGFQSSMNGIPREAFVQF | binds weakly | binds | binds | binds | – | binding (GFP-Dbp5 (S. cerevisiae) [4]): binds weakly; binding [5]: binds
Mex67 (recombinant) (protein, UniProt Q99257 1-599) MSGFHNVGNINMMAQQQMQQNRIKISVRNWQNATMNDLINFISRNARVAVYDAHVEGPLVIGYVNSKAEAESLMKWNGVRFAGSNLKFELLDNNGASAGTSDTISFLRGVLLKRYDPQTKLLNLGALHSDPELIQKGVFSSISTQSKMFPAMMKLASTEKSLIVESVNLADNQLKDISAISTLAQTFPNLKNLCLANNQIFRFRSLEVWKNKFKDLRELLMTNNPITTDKLYRTEMLRLFPKLVVLDNVIVRDEQKLQTVYSLPMKIQQFFFENDALGQSSTDFATNFLNLWDNNREQLLNLYSPQSQFSVSVDSTIPPSTVTDSDQTPAFGYYMSSSRNISKVSSEKSIQQRLSIGQESINSIFKTLPKTKHHLQEQPNEYSMETISYPQINGFVITLHGFFEETGKPELESNKKTGKNNYQKNRRYNHGYNSTSNNKLSKKSFDRTWVIVPMNNSVIIASDLLTVRAYSTGAWKTASIAIAQPPQQQASVLPQVASMNPNITTPPQPQPSVVPGGMSIPGAPQGAMVMAPTLQLPPDVQSRLNPVQLELLNKLHLETKLNAEYTFMLAEQSNWNYEVAIKGFQSSMNGIPREAFVQF | – | – | – | – | – | binding (His-Mtr2 (S. cerevisiae)): binds
Rpl35 (protein, UniProt P0CX84 1-120) MAGVKAYELRTKSKEQLASQLVDLKKELAELKVQKLSRPSLPKIKTVRKSIACVLTVINEQQREAVRQLYKGKKYQPKDLRAKKTRALRRALTKFEASQVTEKQRKKQIAFPQRKYAIKA | – | – | – | – | binds | –
